Biological target: T1, biotinylated truncated STAT6 (123-632)-avi (Homo sapiens, UniProt P42226)
T1 sequence (P42226 123-632 limits assumed): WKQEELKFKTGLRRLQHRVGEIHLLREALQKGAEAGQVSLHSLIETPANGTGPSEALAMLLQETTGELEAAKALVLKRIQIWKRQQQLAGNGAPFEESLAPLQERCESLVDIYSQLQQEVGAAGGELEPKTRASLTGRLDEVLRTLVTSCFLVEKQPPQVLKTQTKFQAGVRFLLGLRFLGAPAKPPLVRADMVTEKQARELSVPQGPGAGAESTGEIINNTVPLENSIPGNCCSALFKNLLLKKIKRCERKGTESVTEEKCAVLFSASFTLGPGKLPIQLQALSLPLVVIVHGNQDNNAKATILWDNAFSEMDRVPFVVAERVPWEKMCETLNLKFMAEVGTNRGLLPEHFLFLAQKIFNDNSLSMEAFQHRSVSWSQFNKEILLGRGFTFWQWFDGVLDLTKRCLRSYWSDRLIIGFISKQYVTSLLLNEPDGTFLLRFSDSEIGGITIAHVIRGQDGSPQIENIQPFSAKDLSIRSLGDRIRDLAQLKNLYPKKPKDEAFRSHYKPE
Test: Homogenous Time-Resolved Fluorescence (HTRF) binding assay
Details: 0.15 nM biotinylated truncated STAT6 (123-632)-avi, 20 nM fluorescein-labeled probe, 30 minutes at room temperature

SMILES	IC50
COc1c(F)cc(F)cc1-c1cc(C2=CCCN(C(=O)CCn3ccnn3)C2)c(F)c2[nH]c(C(=O)N3CCN(c4ncccc4OC4CC4)CC3)cc12 [Example I-597]	< 100 nM
COc1cc(F)ccc1-c1cc(C2=CCCN(C(=O)CCn3ccnn3)C2)c(F)c2[nH]c(C(=O)N3CCN(c4ccccc4OC)CC3)cc12 [Example I-598]	< 100 nM
COc1ccccc1N1CCN(C(=O)c2cc3c(-c4cccnc4OC)cc(C4=CCCN(C(=O)CCn5ccnn5)C4)c(F)c3[nH]2)CC1 [Example I-599]	< 100 nM
COc1cc(F)c(F)cc1-c1cc(C2=CCCN(C(=O)CCn3ccnn3)C2)c(F)c2[nH]c(C(=O)N3CCN(c4ccccc4OC)CC3)cc12 [Example I-600]	< 100 nM
COc1ccccc1N1CCN(C(=O)c2cc3c(-c4cc(F)cc(F)c4OC)cc(C4=CCCN(C(=O)CCn5ccnn5)C4)c(F)c3[nH]2)CC1 [Example I-601]	< 100 nM
COc1ncccc1-c1cc(C2=CCCN(C(=O)CCn3ccnn3)C2)c(F)c2[nH]c(C(=O)N3CCN(C4CC4)CC3)cc12 [Example I-602]	< 100 nM
COc1c(F)cc(F)cc1-c1cc(C2=CCCN(C(=O)CCn3ccnn3)C2)c(F)c2[nH]c(C(=O)N3CCN(C4CC4)CC3)cc12 [Example I-603]	< 100 nM
COc1cc(F)c(F)cc1-c1cc(C2=CCCN(C(=O)CCn3ccnn3)C2)c(F)c2[nH]c(C(=O)N3CCN(C4CC4)CC3)cc12 [Example I-604]	< 100 nM
COc1cccc(N2CCN(C(=O)c3cc4c(-c5cccnc5OC)cc(C5=CCCN(C(=O)CCn6ccnn6)C5)c(F)c4[nH]3)CC2)n1 [Example I-606]	< 100 nM
COc1cccnc1N1CCN(C(=O)c2cc3c(-c4cnccc4C(C)C)cc(C4=CCCN(C(=O)CCn5ccnn5)C4)c(F)c3[nH]2)CC1 [Example I-607]	> 100000 nM
COc1cc(N(C)C)ccc1-c1cc(C2=CCCN(C(=O)CCn3ccnn3)C2)c(F)c2[nH]c(C(=O)N3CCN(c4ncccc4OC4CC4)CC3)cc12 [Example I-609]	< 100 nM
COc1cc(N(C)C)ccc1-c1cc(C2=CCCN(C(=O)CCn3ccnn3)C2)c(F)c2[nH]c(C(=O)N3CCN(c4ccccc4OC)CC3)cc12 [Example I-610]	< 100 nM
COc1cccc(N2CCN(C(=O)c3cc4c(-c5ccncc5OC)cc(C5=CCCN(C(=O)CCn6ccnn6)C5)c(F)c4[nH]3)CC2)n1 [Example I-612]	< 100 nM
COc1cc(F)ccc1-c1cc(C2=CCCN(C(=O)CCn3ccnn3)C2)c(F)c2[nH]c(C(=O)N3CCN(c4ncc(F)cc4OC)CC3)cc12 [Example I-613]	< 100 nM
COc1cc(F)cnc1-c1cc(C2=CCCN(C(=O)CCn3ccnn3)C2)c(F)c2[nH]c(C(=O)N3CCN(c4ncc(F)cc4OC)CC3)cc12 [Example I-614]	< 100 nM
COc1cc(F)cnc1N1CCN(C(=O)c2cc3c(-c4cccc(O)c4)cc(C4=CCCN(C(=O)CCn5ccnn5)C4)c(F)c3[nH]2)CC1 [Example I-615]	< 100 nM
COc1cc(F)cnc1N1CCN(C(=O)c2cc3c(-c4cccc(CO)c4C)cc(C4=CCCN(C(=O)CCn5ccnn5)C4)c(F)c3[nH]2)CC1 [Example I-616]	> 100000 nM
CCOc1ccc(-c2cc(C3=CCCN(C(=O)CCn4ccnn4)C3)c(F)c3[nH]c(C(=O)N4CCN(c5ncc(F)cc5OC)CC4)cc23)c(OCC)c1 [Example I-618]	< 100 nM
CCc1ccncc1-c1cc(C2=CCCN(C(C)=O)C2)c(F)c2[nH]c(C(=O)N3CCN(c4ncccc4OC)CC3)cc12 [Example I-619]	100 to 1000 nM
COc1cc(F)cnc1N1CCN(C(=O)c2cc3c(-c4cccc(-n5nc(C)cc5C)c4)cc(C4=CCCN(C(=O)CCn5ccnn5)C4)c(F)c3[nH]2)CC1 [Example I-620]	< 100 nM
COc1cc(F)cnc1N1CCN(C(=O)c2cc3c(-c4cnn(C)c4-c4ccccc4)cc(C4=CCCN(C(=O)CCn5ccnn5)C4)c(F)c3[nH]2)CC1 [Example I-621]	< 100 nM
COc1cc(F)cnc1N1CCN(C(=O)c2cc3c(-c4ccc5c(c4)c(C4CC4)nn5C)cc(C4=CCCN(C(=O)CCn5ccnn5)C4)c(F)c3[nH]2)CC1 [Example I-622]	< 100 nM
COc1cc(F)cnc1N1CCN(C(=O)c2cc3c(-c4ccc5c(C)nn(C)c5c4)cc(C4=CCCN(C(=O)CCn5ccnn5)C4)c(F)c3[nH]2)CC1 [Example I-623]	< 100 nM
COc1cc(F)cnc1N1CCN(C(=O)c2cc3c(-c4ccc5nn(C)cc5c4)cc(C4=CCCN(C(=O)CCn5ccnn5)C4)c(F)c3[nH]2)CC1 [Example I-624]	< 100 nM
COc1cc(F)cnc1N1CCN(C(=O)c2cc3c(-c4cnn(-c5ccccc5)c4C)cc(C4=CCCN(C(=O)CCn5ccnn5)C4)c(F)c3[nH]2)CC1 [Example I-625]	< 100 nM

SMILES	IC50
COc1cc(F)cnc1N1CCN(C(=O)c2cc3c(-c4cccc(-c5ccncc5)c4)cc(C4=CCCN(C(=O)CCn5ccnn5)C4)c(F)c3[nH]2)CC1 [Example I-626]	< 100 nM
COc1cc(F)cnc1N1CCN(C(=O)c2cc3c(-c4cccnc4C4CC4)cc(C4=CCCN(C(=O)CCn5ccnn5)C4)c(F)c3[nH]2)CC1 [Example I-628]	< 100 nM
COc1cc(F)cnc1N1CCN(C(=O)c2cc3c(-c4cc(C)nc5ccccc45)cc(C4=CCCN(C(=O)CCn5ccnn5)C4)c(F)c3[nH]2)CC1 [Example I-630]	< 100 nM
COc1cc(F)cnc1N1CCN(C(=O)c2cc3c(-c4cc(C)nc(C)c4)cc(C4=CCCN(C(=O)CCn5ccnn5)C4)c(F)c3[nH]2)CC1 [Example I-632]	< 100 nM
COc1cc(F)cnc1N1CCN(C(=O)c2cc3c(-c4cc(C)cc5cccnc45)cc(C4=CCCN(C(=O)CCn5ccnn5)C4)c(F)c3[nH]2)CC1 [Example I-633]	< 100 nM
CC#Cc1cc(-c2cc(C3=CCCN(C(=O)CCn4ccnn4)C3)c(F)c3[nH]c(C(=O)N4CCN(c5ncc(F)cc5OC)CC4)cc23)ccn1 [Example I-634]	< 100 nM
COc1cc(F)cnc1N1CCN(C(=O)c2cc3c(-c4ccc(C)c5ncccc45)cc(C4=CCCN(C(=O)CCn5ccnn5)C4)c(F)c3[nH]2)CC1 [Example I-635]	< 100 nM
COc1cc(F)cnc1N1CCN(C(=O)c2cc3c(-c4cncc(C5CC5)c4)cc(C4=CCCN(C(=O)CCn5ccnn5)C4)c(F)c3[nH]2)CC1 [Example I-637]	< 100 nM
COc1cc(F)cnc1N1CCN(C(=O)c2cc3c(-c4cccc(OC(C)C)c4)cc(C4=CCCN(C(=O)CCn5ccnn5)C4)c(F)c3[nH]2)CC1 [Example I-638]	< 100 nM
COc1cc(F)cnc1N1CCN(C(=O)c2cc3c(C4=CCOC4)cc(C4=CCCN(C(=O)CCn5ccnn5)C4)c(F)c3[nH]2)CC1 [Example I-639]	< 100 nM
CCOc1cc(-c2cc(C3=CCCN(C(=O)CCn4ccnn4)C3)c(F)c3[nH]c(C(=O)N4CCN(c5ncc(F)cc5OC)CC4)cc23)cc(F)c1F [Example I-642]	100 to 1000 nM
CCOc1c(F)cccc1-c1cc(C2=CCCN(C(=O)CCn3ccnn3)C2)c(F)c2[nH]c(C(=O)N3CCN(c4ncc(F)cc4OC)CC3)cc12 [Example I-643]	< 100 nM
COc1cc(F)cnc1N1CCN(C(=O)c2cc3c(C=C4CCOCC4)cc(C4=CCCN(C(=O)CCn5ccnn5)C4)c(F)c3[nH]2)CC1 [Example I-644]	< 100 nM
COc1cc(F)cnc1N1CCN(C(=O)c2cc3c(-c4ccccc4C4CC4)cc(C4=CCCN(C(=O)CCn5ccnn5)C4)c(F)c3[nH]2)CC1 [Example I-645]	< 100 nM
COc1cc(F)cnc1N1CCN(C(=O)c2cc3c(-c4cc(C)ncc4C)cc(C4=CCCN(C(=O)CCn5ccnn5)C4)c(F)c3[nH]2)CC1 [Example I-646]	< 100 nM
COc1cc(F)cnc1N1CCN(C(=O)c2cc3c(-c4cncc(-c5ccccc5)c4)cc(C4=CCCN(C(=O)CCn5ccnn5)C4)c(F)c3[nH]2)CC1 [Example I-647]	< 100 nM
COc1cc(F)cnc1N1CCN(C(=O)c2cc3c(-c4ccc(C)c(C#N)c4)cc(C4=CCCN(C(=O)CCn5ccnn5)C4)c(F)c3[nH]2)CC1 [Example I-648]	< 100 nM
COc1cc(F)cnc1N1CCN(C(=O)c2cc3c(-c4cccc(C5(C#N)CC5)c4)cc(C4=CCCN(C(=O)CCn5ccnn5)C4)c(F)c3[nH]2)CC1 [Example I-649]	< 100 nM
COc1cc(F)cnc1N1CCN(C(=O)c2cc3c(-c4cc(C5(C#N)CC5)ccc4F)cc(C4=CCCN(C(=O)CCn5ccnn5)C4)c(F)c3[nH]2)CC1 [Example I-650]	< 100 nM
COc1cc(F)cnc1N1CCN(C(=O)c2cc3c(-c4cncc(OC(F)F)c4)cc(C4=CCCN(C(=O)CCn5ccnn5)C4)c(F)c3[nH]2)CC1 [Example I-651]	< 100 nM
CCCOc1ncccc1-c1cc(C2=CCCN(C(=O)CCn3ccnn3)C2)c(F)c2[nH]c(C(=O)N3CCN(c4ncc(F)cc4OC)CC3)cc12 [Example I-652]	< 100 nM
COc1cc(F)cnc1N1CCN(C(=O)c2cc3c(-c4ccnc(OC(F)F)c4)cc(C4=CCCN(C(=O)CCn5ccnn5)C4)c(F)c3[nH]2)CC1 [Example I-653]	< 100 nM
CCCOc1ncc(C)cc1-c1cc(C2=CCCN(C(=O)CCn3ccnn3)C2)c(F)c2[nH]c(C(=O)N3CCN(c4ncc(F)cc4OC)CC3)cc12 [Example I-654]	< 100 nM
COc1cc(F)cnc1N1CCN(C(=O)c2cc3c(-c4cncc(OC(C)C)c4)cc(C4=CCCN(C(=O)CCn5ccnn5)C4)c(F)c3[nH]2)CC1 [Example I-655]	< 100 nM
COc1cc(F)cnc1N1CCN(C(=O)c2cc3c(-c4ccnc(F)c4OC)cc(C4=CCCN(C(=O)CCn5ccnn5)C4)c(F)c3[nH]2)CC1 [Example I-656]	< 100 nM

From patent US20250214977A1, “STAT6 INHIBITORS AND USES THEREOF” (Kymera Therapeutics, Inc., priority 2024, published 2025)
